Screen size: about 310,000 compounds; about 2,200 (0.71%) showed an effect of 50% or more. Effects have a minus sign here. This is one part of the list.
The molecules below were run against human ether-à-go-go-related gene (hERG) potassium channel (human, UniProt Q12809) (assay: primary screen, population patch clamp on CHO cells stably expressing hERG).
Chain of human ether-à-go-go-related gene (hERG) potassium channel (Q12809 whole entry, looked up): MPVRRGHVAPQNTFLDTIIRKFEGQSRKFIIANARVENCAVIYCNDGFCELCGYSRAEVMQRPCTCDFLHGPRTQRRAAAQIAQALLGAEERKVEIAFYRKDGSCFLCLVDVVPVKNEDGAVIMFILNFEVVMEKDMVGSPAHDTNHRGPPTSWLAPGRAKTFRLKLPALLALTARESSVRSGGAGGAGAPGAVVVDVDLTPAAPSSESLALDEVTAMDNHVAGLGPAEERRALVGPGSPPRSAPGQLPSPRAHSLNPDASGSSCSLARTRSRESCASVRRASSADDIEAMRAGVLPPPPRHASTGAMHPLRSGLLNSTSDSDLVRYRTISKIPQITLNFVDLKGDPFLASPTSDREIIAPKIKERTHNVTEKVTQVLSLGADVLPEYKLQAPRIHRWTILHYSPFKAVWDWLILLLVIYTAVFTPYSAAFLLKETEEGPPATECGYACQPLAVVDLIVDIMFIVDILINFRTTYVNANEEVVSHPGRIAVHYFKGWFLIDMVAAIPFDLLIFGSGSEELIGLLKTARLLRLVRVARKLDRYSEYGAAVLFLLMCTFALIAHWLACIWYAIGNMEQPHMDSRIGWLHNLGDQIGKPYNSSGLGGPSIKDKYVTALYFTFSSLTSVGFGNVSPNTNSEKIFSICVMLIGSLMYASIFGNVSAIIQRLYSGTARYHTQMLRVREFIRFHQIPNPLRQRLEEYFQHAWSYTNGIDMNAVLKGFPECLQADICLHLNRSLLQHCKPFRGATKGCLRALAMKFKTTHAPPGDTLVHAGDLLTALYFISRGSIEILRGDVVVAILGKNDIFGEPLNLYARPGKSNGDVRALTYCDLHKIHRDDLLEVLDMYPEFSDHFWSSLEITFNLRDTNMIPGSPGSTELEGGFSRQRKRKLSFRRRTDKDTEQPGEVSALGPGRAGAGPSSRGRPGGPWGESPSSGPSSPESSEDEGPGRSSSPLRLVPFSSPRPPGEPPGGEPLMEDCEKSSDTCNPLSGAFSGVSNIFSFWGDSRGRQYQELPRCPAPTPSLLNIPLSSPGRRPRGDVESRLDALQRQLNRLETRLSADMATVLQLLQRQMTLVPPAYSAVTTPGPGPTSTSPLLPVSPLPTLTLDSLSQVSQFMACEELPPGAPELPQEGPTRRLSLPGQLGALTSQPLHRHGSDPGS

| SMILES | hERG current change (%, negative = inhibition) at 1uM |
| --- | --- |
| CC(=O)Nc1ccccc1C(=O)N1CC2(C)CC1CC(C)(C)C2 (centres unmarked) | 10.7% |
| CN(CCO)c1ccc(C(C(=O)c2ccccc2)c2ccc(N(C)CCO)cc2)cc1 | 11.2% |
| CCCn1c(NC(=S)Nc2ccccc2)nc2ccccc21 | 10.4% |
| Cc1cccc(-c2nc(CC(=O)Nc3cccc(S(=O)(=O)NC4=NCCC4)c3)cs2)c1 | 8.17% |
| O=c1oc2ccccc2c(Nc2ccc(F)cc2)c1[N+](=O)[O-] | 6.77% |
| Cc1csc(Sc2nc3c(c(=O)[nH]c(=O)n3C)n2Cc2ccccc2Cl)n1 | 9.33% |
| O=C1c2nccnc2C(=O)N1c1ccc(C(F)(F)F)cc1 | 14% |
| CCOC(=O)CC1C(=O)NCCN1C(=O)COc1ccc(C(C)(C)C)cc1 (centres unmarked) | 13.9% |
| COc1ccc(/C=N/NC(=O)c2ccn[nH]2)cc1COc1ccc(Cl)cc1 | 13% |
| Cc1cc(=O)[nH]c2nnc(-c3ccc(Br)cc3)n12 | 9.25% |
| Cc1cc2c(=O)n(CC(=O)NCC(=O)Nc3ccc(C(C)C)cc3)cnc2s1 | 10.5% |
| CC(=O)Nc1cccc(N2C(=O)CC(N3CCC(C(=O)N4CCCCC4)CC3)C2=O)c1 (centres unmarked) | 17.6% |
| CC(=O)Nc1cccc(C(=O)OCC(=O)NNC(=O)c2ccc([N+](=O)[O-])cc2)c1 | 4.07% |
| CCCc1cc(=O)[nH]c(SCC(=O)c2cc(C)n(C)c2C)n1 | 2.29% |
| O=C(Nc1ccccc1Cl)NC1(C(=O)NCCCN2CCOCC2)CCCCC1 | 10.2% |
| O=C(CCN1CCCO1)NC1CCCc2c1cnn2-c1ccccc1F (centres unmarked) | 22.8% |
| CCOC(=O)c1ccc(NC(=S)NCCCN2CCOCC2)cc1 | 14.2% |
| OC1(c2ccc(F)cc2)CCN(Cc2nnnn2Cc2cccs2)CC1 | 4.25% |
| Cc1[nH]c2ccccc2c1C(=O)NS(=O)(=O)Nc1ccccc1 | 14.6% |
| Cc1ccc(CN(C(=O)c2sc3ccccc3c2Cl)C2CCS(=O)(=O)C2)cc1 (centres unmarked) | -1.23% |
| COC(=O)c1ccsc1NC(=O)CSc1nnnn1Cc1ccccc1 | 0.681% |
| COc1cccc(O[C@@H]2O[C@@H]3COC(C)(C)O[C@H]3[C@H](O)[C@H]2NC(C)=O)c1 | 3.2% |
| O=C(OCc1ccccc1Cl)c1ccccc1C(=O)c1ccccc1 | 7.03% |

| SMILES | hERG current change (%, negative = inhibition) at 1uM |
| --- | --- |
| O=C(C1=NN[C@@H]2C(=O)N(c3cccc(F)c3)C(=O)[C@H]12)C(c1ccccc1)c1ccccc1 | -15.7% |
| CCOc1ccc(/C(O)=C2/C(=O)C(=O)N(CC3CCCO3)C2c2ccc(C)o2)cc1 (centres unmarked) | 13.2% |
| COCCNC(=O)c1onc(CCl)c1C(=O)OC | 4.13% |
| CCC(=O)NCCNc1ccc([N+](=O)[O-])cn1 | 1.37% |
| CCOc1ccc(-c2nc(-c3ccc(OC)cc3)no2)cc1OCC | 11.8% |
| COc1ccc(Cc2noc(CN3CCCN(C4Cc5ccccc5C4)CC3)n2)cc1OC | -44.4% |
| COc1cccc(/C=N/Nc2cc(-n3nc(C)cc3-c3ccccc3)ncn2)c1O | 15.2% |
| CCOC(=O)C1=C(C)N(CC(C)C)C(=O)/C1=C\c1cccs1 | 3.84% |
| COc1ccccc1NC(=O)c1cc(S(=O)(=O)N2CCCC2)cn1C | -2.89% |
| Cc1cccc(C(=O)Nc2nnc(SCC(=O)Nc3ccc4c(c3)oc3ccccc34)s2)c1 | 12.2% |
| Cc1cc(NC(=O)c2ccc(Cn3cc([N+](=O)[O-])cn3)o2)no1 | 11.2% |
| CC1(C)NC(=O)N(CC(=O)N2CCC(Cc3ccccc3)CC2)C1=O | -7.16% |
| COc1ccc(S(=O)(=O)Nc2ccc(Oc3ncccn3)c(Cl)c2)cc1 | 5.3% |
| Cc1ccc(-n2c(SCC(=O)N3c4ccccc4Sc4ccccc43)nnc2-c2ccncc2)cc1 | 3.46% |
| COc1ccc(C)cc1NC(=O)COC(=O)C1CCN(C(=O)c2ccc(Cl)cc2)CC1 | -57.7% |
| CCCN(CCC)Cc1c(C(=O)N/N=C/c2ccco2)nnn1-c1nonc1N | 9.02% |
| CC(=O)Nc1cccc(-c2cc(-c3c(Cl)cccc3Cl)no2)c1 | 10% |
| Cc1ccsc1/C=N/NC(=O)Cc1ccc(Cl)cc1 | 7.37% |
| O=C(O)/C=C/C(=O)Nc1ccccc1C(=O)Nc1ccccc1 | 14.9% |
| COc1ccc(NC(=O)CN2c3cccc4cccc(c34)S2(=O)=O)cc1 | 18.7% |
| COc1ccc(CC(=O)OCc2cc3ccc(C)cc3[nH]c2=O)cc1 | 15.2% |
| Nc1nc2ccccc2n1/N=C/c1ccc([N+](=O)[O-])s1 | 4.64% |
| CCOc1cc(/C=N/NC(=O)CN2CCCCC2)ccc1OCc1cccc(Cl)c1 | 12.3% |

| SMILES | hERG current change (%, negative = inhibition) at 1uM |
| --- | --- |
| CCOC(=O)N1C(=O)[C@](CC)(c2ccccc2)N1C(=O)OCC | 10.7% |
| CCc1ccc(NS(=O)(=O)c2ccc(OC)c3ncccc23)cc1 | 15.2% |
| Cc1cccc(Nc2nn3c(=O)c4ccccc4nc3s2)c1 | 19.6% |
| O=C1OC(Nc2ccc(Br)cn2)c2ccccc21 (centres unmarked) | 10.6% |
| O=c1c2ccccc2nc(-c2ccoc2)n1CCc1ccccc1 | 5.06% |
| O=C(O)c1cc2ccc3ccccc3c2oc1=O | 19.4% |
| NC(=O)c1ccc(NC(=O)COc2ccc(-n3cnnn3)cc2)cc1 | 2.15% |
| CC(NC(=O)/C=C/c1ccccc1)c1ccccc1 (centres unmarked) | 1.21% |
| C/C(=N\NC(=O)CNC(=O)c1cccnc1)c1cccc(O)c1 | 10.4% |
| O=C(Oc1cccc2ccccc12)c1ccco1 | 17.3% |
| Cc1ccc(Cl)cc1N1CCN(C2CCCCC2NS(=O)(=O)c2ccccc2)CC1 (centres unmarked) | 12.3% |
| COCCN(C(=S)Nc1ccc(OC)cc1)C1CCN(C(C)=O)CC1 | 16.4% |
| CCC(=O)c1ccc(OCC(=O)Nc2cc(S(=O)(=O)N3CCCCC3)ccc2N2CCN(CC)CC2)cc1 | -24.2% |
| COc1ccc(/C=N/NC(=O)CCSc2nc3ccccc3s2)cc1 | -0.177% |
| CCCN(CCC)c1ncnc2nc[nH]c12 | -0.384% |
| CCOC(=O)C1=C(CCc2ccccc2)NC(=O)NC1c1ccc(C#N)cc1 (centres unmarked) | 12.5% |
| COC(=O)C1(C(C[N+](=O)[O-])c2ccc(C)cc2)C(=O)NCC1c1ccco1 (centres unmarked) | 11.5% |
| O=C(O)c1ccc(CSc2nc3ccccc3[nH]2)cc1 | 6.78% |
| CNc1nnc(-c2ccc(C)cc2)c2ccccc12 | -5.45% |
| COc1ccc(C(=O)Nc2ccc(C(=O)NCCc3ccccc3)cc2)cc1 | 9.85% |
| Cc1cc(NC(=O)CN2C(=O)NC(C)(c3ccc(Cl)cc3)C2=O)no1 (centres unmarked) | 25.5% |
| COc1cccc(NC(=O)C2CCCO2)c1 (centres unmarked) | 11.7% |
| CCNC(=O)c1sc2cc(C)ccc2c1Cl | 2.67% |

| SMILES | hERG current change (%, negative = inhibition) at 1uM |
| --- | --- |
| O=S(=O)(c1ccc(Br)cc1)c1nc(-c2ccco2)oc1NCC1CCCO1 (centres unmarked) | 5.67% |
| COc1ccccc1N1CCN(/N=C/c2cc(OC)c(OC(C)=O)c(OC)c2)CC1 | 25.8% |
| Cc1cccc(Nc2nc(N)nc(CCl)n2)c1C | 12.4% |
| CC(C)Cc1nnc(NC(=O)CCC(=O)NCCc2ccc(Cl)cc2)s1 | 24.7% |
| O=C(Cn1cnc2c(nnn2Cc2ccc(F)cc2)c1=O)N1CCN(c2ccccc2)CC1 | 1.91% |
| Cc1cccc(CN2CCN(C3CCCC3)C(CCO)C2)n1 (centres unmarked) | 5.32% |
| CCOC(=O)CSc1cc(CS(C)(=O)=O)nc(-c2ccccn2)n1 | -8.53% |
| CCC(=O)Nc1nc2c(OC)ccc(OC)c2s1 | 19% |
| CC(C)(C)OC(=O)NCCCCCNC(=O)c1[nH]cnc1C(=O)Nc1ccon1 | 6.28% |
| CC(=O)c1nnn(-c2nc(N3CCCC3)nc(N(c3ccccc3)c3ccccc3)n2)c1C | 7.81% |
| O=C1CSC(=S)N1 | 25.7% |
| CCN(CC)C(=O)c1nc[nH]c1C(=O)N1CCc2ccccc2C1 | 17.1% |
| C=CCSc1nc2c(c(=O)[nH]c(=O)n2C)n1Cc1ccc(C)cc1 | 14.8% |
| O=C1N/C(=C\c2ccccc2)C(O)=C1C=NCc1ccccc1 | 8.7% |
| OCCC1CN(Cc2ccccc2-c2ccco2)CCN1Cc1ccsc1 (centres unmarked) | 2% |
| CC(C(=O)Nc1ccccc1C(F)(F)F)N1CCN(C)CC1.O=C(O)C(=O)O (centres unmarked) | 12.4% |
| CN1C(=O)C(O)(CC(=O)c2cccnc2)c2ccccc21 (centres unmarked) | 15.2% |
| CCOC(=O)C1(Cc2cccc(OC)c2)CCN(Cc2ccccc2OC)CC1 | -18.5% |
| COc1ccc(S(=O)(=O)N2CCCCCC2)cc1C(=O)NCCOc1ccc(C)cc1 | -5.43% |
| Cn1c(C(=O)NN)cc2cc(Oc3ccccc3)ccc21 | 6.19% |

Source: article PMC4336329 (PLoS ONE, 2015)
